Here are results for 19 molecules from the supplement of paper PMC11383711.

The chains are these.
B1: W85-2B03 (protein)
chain 1: QVQLVESGGGVVHPGRSLRLSCAASGFDFSDYAMHWVRQAPGKGLEWVALISSDGGNKYSADSMEGRFTISRDNYKNTVYLQMNRLRAEDTAVYYCATDFCSSSSCYLEYWGQGTLVTVSS
chain 2: QSALTQPASVSGSPGQSITISCTGTSTDVGGYNYVSWYQQHPGKAPKLMIYEVNNRPSGISDRFSASKSGNTASLTISGLQAEDEADYYCSSYTRRSTWVFGGGTKVAVL
B2: 029-09-2A06 (protein)
chain 1: EVQLVESGGGLVKPGGSLRLSCSASGFTFSSYTMHWVRQAPGKGLEWLSSISSSSAYIYYADSVKGRFTVSRDNAKKSLYLQMDSLRAEDTAIYFCARDGTSLTVAGPLDYWGQGTLVTVSS
chain 2: DIQMTQSPSSLSASVGDRVTITCRASQGIRDDLAWYQQKPGKAPKRLIYAASSLQSAFPARFSGSGSGTEFTLTISGLQPEDFATYYCLQYNSYPRTFGQGTKVEIK
B3: antibody 3D03 (protein)
chain 1: EVQLVQSEAEVKKPGESLKISCKGSGYSFANYWIAWVRQMPGQDLEWMGVIYPGDSDTKYSPSFQGQVTISADKSISTAYLQWNSLKASDTAMYYCARAPPHEGRYYYYYYYMDVWGKGTTVTVSS
chain 2: AIRMTQSPSSLSASVGDRVTITCRASQDINSFLAWYQQKPGQAPKVLLYGASRLQSGVPSRFSGSGSGADYTLTISSLQPEDFATYYCQQYYHIPRFGQGTKVEIK
B4: W85-1E04 (protein)
chain 1: EVQLVESGGGVVQPGGSLRLSCAASGFTFGDYAMHWVRQPPGKGLEWVSLITGDGGSTKYADSVKGRFTISRDNSKNSLSLEMNSLRTEDSALYYCAKDIVSVVAAVDYWGQGARVTVSS
chain 2: QSALTQPASVSGSPGQSITISCTGTSSDVGCYNYVSWYQQHPGKAPKLMIYDVNNRPSGVSDRFSGSKSGNTASLTISGLQAEDEADFYCSSYTVSSTLVFGSGTKVTVL
B5: 051-09-4C02 (protein)
chain 1: QVQLVESGGGLVTPGGSLRLSCVASGFSFGDFYMGWIRQAPGKGLQWLSHISPSGGTIYYSDSVKGRFSISRDNAKNSVHLEMNSLRADDTAVYYCARAGVAVLTFDNRGWRFFDPWGQGTLVTVSS
chain 2: EIVLTQSPATLSLSPGERATLSCRASQSINDYLAWYQQKPGQAPRLVIHDASNRATGIPARFSGSGSETDFTLTISSLEPEDFAVYYCQQRSNWPPGVTFGQGTRLEIK
B6: AG10-3C01 (protein)
chain 1: VQLLESGGDLIQPGGSLRLSCAASGFAFGRYAMGWVRQAPGKGLEWVSSISGGFGVFGVTYYADSVKGRFTISRDNSKNTLYLQMNSLRAEDTAIYYCVKDFTPPGTWGWRPGYCDYWGQGTLVTVSS
chain 2: EIVLTQSPGTLSLSPGERATLSCRASQSVTSNSLAWYQQRPGQAPRLLIYGASSRATGIPDRFSGSGSGTDFTLTITRMDPEDFAVYHCHHYGSSTGTFGQGTKVEIK
B7: C1-F02 (protein)
chain 1: VQLQESGPGLVKPSETLSLTCTVSGGSIYSTIHYWGWIRQPPGKGLEWIGSIYYDANTYYNPSLKSRVTMSIDTSKNQFSLRVYSVTAADTAVYYCAKINSGYEYYYGMDVWGQGTTVTVSS
chain 2: EIVMTQSPGTLSVSPGERATLSCRASQSVRGNVAWYQQKSGQAPRLLIYNTSTRATGIPARFSGSGSGTEFTLTISSLQSEDLAVYYCQQYNNWLYTFGQGTKVEIK
B8: S8V1-146-Ig (protein)
chain 1: SGAEVKKPGASVKVSCKASGYKFTNYYVHWVRQAPGQGLEWMGIINPREWLGIMNPRAGKTVFAQKFQARVSVTADTSTSTVSMELNSLGYEDTAVYFCARGHDILTDYPHLHWLDSWGQGTLVTVSS
chain 2: SITPGESASISCSSAQSLLRRDGYNYLDWYLRKAGQPPQLLIYLGSTRASGVPDRFSGSGSGTNFTLKISRAEAEDVGVYYCMQALQMPLTFGGGTQVEI
B9: 01.e.01 (protein)
chain 1: QVRLVESGGGVVQPGRSLRLSCAASAFTFSSYALHWVRQAPGKGLEWVTVISSNGRNKYYADSVKGRFTISRDNSKNTLYLQMNSLRVEDTAVYYCARGSSGYTYGYIDPLSNYYGMDVWGQGTTVTVSS
chain 2: DIVMTPRSVSLSVTPGEPASISCRSSQSLLHSNGYNYLDWYVQKPGQSPQLLIYLSSNRASGVPDRFSGSGSGTDFTLEISRVEAEDVAVYYCMQARQTPPTFGQGTKVEIK
B10: AG11-3C06 (protein)
chain 1: VQLVESGGVVVQPGGSLNLSCAASGFTFDDYAMHWVRQGPGKGLEWVSLISWDGGSRYYADSVKGRFTISRDNSKNSLYLEMNSLRTEDTALYYCAKDLGSSWYQLGEKAFDSWGQGTLVTVSS
chain 2: IVMTQSPSSLSASVGDRVTITCQASHDISHYLNWYQQKPGRAPKLLIYDASNLATGVPSRFSGSGSGTDFTFTISTLQPEDIATYFCQHYDHLPQITFGPGTKVEIK
B11: AG13-3E05 (protein)
chain 1: VQLQESGPGLVSPSETLSLTCTVSADSINSYYWNWIRQPPGKGLEWIGYIHYSGRSIHNPSLNRRVTISMDTSKNQFSLRLTSVTAADTAMYYCASLKKGETSPFDYWGQGTLVTVSS
chain 2: DIQMTQSPSTLSASVGDRVSLTCRASQSIGSWLAWYQQKPGKAPKLLIFHASSLESGVPSRFSGSGSGTEFTLTINSLQPDDFATYYCQQYYVYWTFGQGTKVEIK
B12: C05 (protein)
chain 1: QVQLQESGGGLVQPGESLRLSCVGSGSSFGESTLSYYAVSWVRQAPGKGLEWLSIINAGGGDIDYADSVEGRFTISRDNSKETLYLQMTNLRVEDTGVYYCAKHMSMQQVVSAGWERADLVGDAFDVWGQGTLVTVS
chain 2: DIQLTQSPSSLSASVGDRVTLTCQASQDIRKFLNWYQQKPGKGPKLLIYDASNLQRGVPSRFSGVDLGQISLSSSVACSLKDVGTYYCQQYDGLPFTFGGGTKLEIK
B13: C1-C02 (protein)
chain 1: VQLVESGGGLVKPGGSLRISCAASGFSFSNAWMNWVRQAPGRGLEWVGRIKSKTDGGITDYGAPVKGRFSISRDDSKKTLYLQMNSLKTEDTAVYYCATGGGSASGMYYYNGLDVWGQGTTVTVSS
chain 2: DIVMTQTPLSLSVTPGQPASISCKSSQTLLHGDEKTYLYWYLQKPGQSPQILIYEVSNRFPDVPDRFSGSGSGTDFTLKISRVEAEDVGVYYCMQSIQLPYTFGQGTKVEIK
B14: antibody 3G04 (protein)
chain 1: EVQLVESGGGLVKPGGSLRLSCAASGFILSDYYMSWIRQAPGKGLEWISYISNSGSSIYNADSVKGRLTISRDSAKNSVFLELNSLRAEDTAVYYCARFPRFGSGSPYQNDAFDIWGQGTMVTVSS
chain 2: DIQMTQSPSSLSASVGDRVSITCRAGRNINNYLNWYQQPPGKAPKLLIFSAVTLQSGVPSRFSGSGSGTEFSLTINSLQPEDSATYYCQQTYGNPTFGQGTKVEIK
B15: 045-09-1A01 (protein)
chain 1: QVQLQESGPGLVKPSQTLSLTCTVSGGSIRSGIHYWSWIRQFPGKGLEWIGLIHYSENTHHNPSLKSRVAMSVDTSKNQFSLTLSSVTAADTAVYYCARAAKESLCIGGSCDSNYEHYGLDVWGQGTTVTVSS
chain 2: DIQMTQSPSSLSASIGDRVTITCRASQSIRNYLNWYQQKPGKAPKLVIYAVSNLQSGVPSRFSGSGSGTDFTLTISSLQPEDLATYYCQQSYSTLPYTFGQGTKVEIK
B16: 01.f.01 (protein)
chain 1: EVQLLESGGGVVQPGGSLRLSCGATGFALRDYGIHWVRQAPGQGLEWVAFTRHDGTHKDYIDSVKGRFTISRDNSKNTLYLQMNRLRVEDTAIYYCAKVGYQLLYSGAFHIWGQGTMVSVS
chain 2: DIVMTQSPVSLPVTPGEPASISCRSSQSLLHTSEYNYLDWYLQKPGQSPQLLIYLGSHRASGVPDRFSGSGSGTDFTLKISRVEAEDVGVYYCMQALQTPQTFGQGTKLEIK
B17: FISW-k.01 (protein)
chain 1: QVTLRESGPALVKPTQTLTLTCTFSGFSLSTSGMCVSWIRQPPGKALEWLALIDWDDGTFYSTSLKTRLTISKDTSKSQVVLTMTNMGPVDTGTYYCARKLYGDYSDWFDYWGQGILVTVSS
chain 2: SYELTQPLSVSVALGQTARITCGGNNIGSKNVHWYQQKPGQAPVLVIYRDSNRPSGIPERFSGSNSGNTATLTVSRAQAGDEADYYCQLSDSSIVVFGGGTKLTVL
B18: AG2-B02 (protein)
chain 1: VQLVQSGAEVKKPGESLKISCRASGYNFDRHWIGWVRQTPGKGLEWMAIIYPHDSGHRYSPAFEGQVAISADKSTSTAYLQWSSLKASDTATYYCAKLPSKYYYDNSGPFDVWGQGTLVTVSS
chain 2: AIQLTQSPSSLSASVGDRVTITCRASESVITALAWYQQRPGRAPRLLISDASTLQNGVPSRFSGSGSGTDFALTITSLQPEDFATYYCQQYETGPTFGQGTRLEIK
B19: AG3-D06 (protein)
chain 1: QLQLQESGPGLVKPSETLSLTCSVSGGSISETIYYWGWIRQPPGKGLEWIGTIYSDGNTYYNPSLKSRVNMFVDTSDNQFSLKMKSLSAADTAVYYCARLRDGYKYYYGMDVWGQGTTVTVSS
chain 2: DIQMTQSPSSLSASVGDRVTIPCRASQTISTYLNWYQQRPGKAPKLLIYSASILERGVPSRFSGSGSGTDFTLTISSLQPEDFATYYCQWGSAISVTFGQGTKLEIK

The other results are listed elsewhere or left out. Binding of human antibodies (heavy:light variable regions, tested as scFv in one mRNA-display pool) to influenza hemagglutinin, with or without the stem antibody CR9114 bound first. Score = (mean enrichment − median) / interquartile range of that screen; higher = more enriched, 0 = typical non-binder. Active = above the paper's cut-off per screen: stems 28; unblocked H1 Solomon Islands 5, H1 Michigan 3, H3 5, H5 19, H7 2.85, both B 5; blocked 9, 7, H5 10, H7 10, B Phuket 10, B Lee 11.5. Scores are scaled within each screen and are no affinities; replicates correlate at about 0.6 to 0.9, and antibodies rare in the pool are noisier.

The target of one test is H1 HA stem construct (mini-HA #4900). As to the kind of experiment: mRNA display binding score; higher = more enriched on the antigen. The settings on record: antigen blocked with: nothing. On the procedure: (§1)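 A pool of natively paired antibodies, displayed as scFv on mRNA, was selected once on antigen-coated beads and sequenced before and after; two replicates.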
In the case of B1, the “mRNA display binding score” value is inactive: -0.923.

Turning to B2, the “mRNA display binding score” value is inactive: -0.115.

On to B3, for which the “mRNA display binding score” value is inactive: 0.892.

Regarding B4, the “mRNA display binding score” value was inactive: -0.595.

With B5, the “mRNA display binding score” value is inactive: -1.28.

As to B6, the “mRNA display binding score” value is inactive: 0.621.

In the case of B7, the “mRNA display binding score” value is inactive: 1.95.

B8: the “mRNA display binding score” value is inactive: 6.85.

With B9, the “mRNA display binding score” value is inactive: -0.191.

Turning to B10, the “mRNA display binding score” value was inactive: -1.28.

For B11, the “mRNA display binding score” value is inactive: 0.641.

As for B12, the “mRNA display binding score” value was inactive: 0.776.

For B13, the “mRNA display binding score” value was inactive: -0.769.

With B14, the “mRNA display binding score” value was inactive: -0.443.

On to B15, for which the “mRNA display binding score” value is inactive: 2.14.

In the case of B16, the “mRNA display binding score” value is inactive: 0.0981.

In the case of B17, the “mRNA display binding score” value was inactive: -0.0667.

For B18, the “mRNA display binding score” value is inactive: -0.65.

On to B19, for which the “mRNA display binding score” value is inactive: 0.653.

A further test concerns the target H3 HA stem construct (H3ssF). Described as above. The settings on record: antigen blocked with: nothing. The method, then: as §1
Turning to B1, the “mRNA display binding score” value is inactive: -0.376.

As for B2, the “mRNA display binding score” value was active: 42.9.

Consider B3, for which the “mRNA display binding score” value is inactive: 2.55.

Take B4: the “mRNA display binding score” value was inactive: -0.341.

As to B5, the “mRNA display binding score” value was inactive: 0.294.

With B6, the “mRNA display binding score” value was inactive: 3.86.

As for B7, the “mRNA display binding score” value was inactive: 3.96.

For the molecule B8, the “mRNA display binding score” value was inactive: 1.9.

In the case of B9, the “mRNA display binding score” value is inactive: 0.12.

As to B10, the “mRNA display binding score” value is inactive: -0.805.

As to B11, the “mRNA display binding score” value is inactive: 0.309.

With B12, the “mRNA display binding score” value was inactive: 1.14.

Turning to B13, the “mRNA display binding score” value is inactive: 0.00238.

With B14, the “mRNA display binding score” value was inactive: -0.459.

In the case of B15, the “mRNA display binding score” value was inactive: 2.99.

Turning to B16, the “mRNA display binding score” value is inactive: 0.301.

Turning to B17, the “mRNA display binding score” value is inactive: 2.88.

Regarding B18, the “mRNA display binding score” value is inactive: 0.538.

In the case of B19, the “mRNA display binding score” value is inactive: 0.291.
